Consider 107 compounds from PubChem BioAssay AID488969 (Vanderbilt High Throughput Screening Facility, 2010).

Whole data set: some 110,000 compounds, median “z-score” near -0.1, cut for the highest 2% near 2. The list shows a part of the results.

This assay concerns the target Metabotropic glutamate receptor 8 (Rattus norvegicus) (UniProt P70579). Briefly: rat mGluR8 modulators via GIRK flux, primary screen, cell-based, thallium flux, HTS (AID 488969). As to conditions: HEK293 rat mGluR8, GIRK (G protein-gated inwardly rectifying potassium channel) thallium flux, FluoZin2; at 10 µM; stronger effect = higher value; submaximal glutamate (EC20) added with thallium.
UniProt P70579, sequence (P70579 whole entry, looked up): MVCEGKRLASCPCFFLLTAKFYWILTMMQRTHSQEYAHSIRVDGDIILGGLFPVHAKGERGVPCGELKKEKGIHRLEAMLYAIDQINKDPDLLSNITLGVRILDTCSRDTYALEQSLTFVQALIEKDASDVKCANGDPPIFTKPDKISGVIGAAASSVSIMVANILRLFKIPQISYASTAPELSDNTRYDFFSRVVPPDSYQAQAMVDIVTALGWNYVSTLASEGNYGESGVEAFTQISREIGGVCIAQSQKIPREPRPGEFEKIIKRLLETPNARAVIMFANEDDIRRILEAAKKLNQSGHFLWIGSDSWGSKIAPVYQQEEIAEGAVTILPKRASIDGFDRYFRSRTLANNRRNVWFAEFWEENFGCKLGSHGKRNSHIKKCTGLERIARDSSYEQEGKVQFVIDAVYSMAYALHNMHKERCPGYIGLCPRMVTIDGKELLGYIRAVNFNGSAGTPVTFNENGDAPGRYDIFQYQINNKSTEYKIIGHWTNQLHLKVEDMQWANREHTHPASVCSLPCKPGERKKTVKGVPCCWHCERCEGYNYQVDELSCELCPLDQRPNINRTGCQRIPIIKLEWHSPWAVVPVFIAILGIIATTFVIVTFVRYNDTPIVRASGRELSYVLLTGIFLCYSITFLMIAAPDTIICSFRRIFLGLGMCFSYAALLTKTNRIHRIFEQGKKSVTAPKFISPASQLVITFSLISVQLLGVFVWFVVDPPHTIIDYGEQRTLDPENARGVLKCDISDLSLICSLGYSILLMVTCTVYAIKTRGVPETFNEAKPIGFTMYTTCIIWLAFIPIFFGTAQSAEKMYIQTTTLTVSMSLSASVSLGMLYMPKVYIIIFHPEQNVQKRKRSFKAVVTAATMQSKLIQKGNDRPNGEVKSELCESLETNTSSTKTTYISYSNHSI
Take `CCN(Cc1ccccc1)C(c1cccs1)c1nnnn1C1CCCCC1` (configuration not stated): the z-score was 0.834.
The same measure for `Cc1cc(O)ccc1N/C=C(\C#N)c1nc2ccccc2o1`: -0.0117.
Under `Cc1c(-c2nc(N)nc(Nc3ccccc3F)n2)oc2ccccc12` stands 0.89; under `CCOC(=O)C1=C(C)N(CC(C)C)C(=O)/C1=C\c1ccc(OCC(=O)Nc2ccccc2)cc1`, 0.0387; under `Cc1nc(Nc2ccc(S(=O)(=O)N3CCCCC3C)cc2)c2nnn(Cc3ccccc3)c2n1` (configuration not stated), -0.315.
The same measure for `Cc1ccc(NC(=O)CN2CCC(NC(=O)C3CCCCC3)CC2)c(Br)c1`: 0.731; for `O=C(c1ccco1)N1CCN(C(=O)C2CC(c3ccc(Cl)c(Cl)c3)=NO2)CC1` (configuration not stated): -0.694; for `N/C(=N\OC(=O)COc1ccccc1Cl)c1ccccn1`: 1.57.
As to `Cc1ccc(SCc2[nH]nc3c2C2(C(=O)Nc4ccc([N+](=O)[O-])cc42)C(C#N)=C(N)O3)cc1` (configuration not stated), the z-score was -0.0673.
Under `CCN(CC)S(=O)(=O)c1ccc(C(=O)NCC(c2cccs2)N2CCOCC2)cc1` (configuration not stated) stands -0.225; under `COc1ccccc1NC(=O)CSc1nnc(-c2ccco2)n1Cc1ccco1`, -1.03.
The same measure for `C=CCn1c2ccccc2c2nnc(SCc3[nH]c(=O)[nH]c3C(=O)CCCCC(=O)OCC)nc21`: -0.696; for `CC(C)CNC(=O)c1cccc(NC(=O)c2ccc(NC(=O)c3ccco3)cc2)c1`: -0.0461.
Under `Oc1ccc(CN2CCCCC2)c2cccnc12` stands 0.233; under `CCN(CC)c1ccc(NC(=O)c2cc(Cl)ccc2OC)cc1`, -0.108; under `N#CC(=C1CCCC1)c1nc(-c2ccccc2)cs1`, 0.00712.
In turn, `COc1ccccc1CNc1cc(CSc2ccc(Cl)cc2)nc(C)n1` had a z-score of 0.452.
Under `CC1(C)CC(=O)c2sc(NC(=O)Cc3cccs3)nc2C1` stands -0.0922.
Under `CNC(=O)Nc1ccccc1C(=O)NCc1ccccc1` stands -0.373; under `CCOc1ccc(C2C(C(=O)C3CC3)N3C=C(C#N)C=CC3C2(C#N)C#N)cc1` (configuration not stated), -0.215.
Under `CN1CCN(C(=O)c2ccc(NS(=O)(=O)c3ccccc3)cc2)CC1` stands -0.282; under `Cc1cc(-c2ccccc2)c2c3c(c(-c4ccccc4)n2n1)c(=O)n(C)c(=O)n3C`, -0.343.
Compound `Cc1ccc(OS(=O)(=O)c2ccccc2)c(/C=N/N=C2\NC(=O)C(C)S2)c1` (configuration not stated) showed a z-score of -0.426.
Under `COc1ccc(OC)c(S(=O)(=O)N(C)CC(=O)N2CCN(c3cccc(Cl)c3)CC2)c1` stands -2.42; under `C/C(=N\NC(=O)CSCc1ccccc1Br)c1cccc([N+](=O)[O-])c1`, -0.0139.
Take `O=C(NCCSCc1ccco1)c1ccc(CN2CCOCC2)cc1`: the z-score is -0.442.
The same measure for `CCCCOC(=O)c1ccc(NC(=O)c2cnc3n(c2=O)CCS3)cc1`: 0.203; for `CCOC(=O)c1c(NC(=O)C(=O)N/N=C/c2ccc(OCC)cc2)sc2c1CCCCC2`: -0.218; for `O=[N+]([O-])c1cc([N+](=O)[O-])c2cccnc2c1Oc1ccccc1O`: 0.0375.
Under `CCOC(=O)C(NC(=O)CC)(Nc1sc(C)c(CC)c1C#N)C(F)(F)F` (configuration not stated) stands 0.00232; under `O=C(Nc1ccc(Cc2ccncc2)cc1)C1CCC(N2C(=O)C3C4C=CC(C5CC45)C3C2=O)CC1` (configuration not stated), -0.424; under `Cn1sc(NC(=O)c2ccc(Cl)cc2)nc1=O`, 0.266.
Under `CCC(=O)Nc1nc2cc(OC)ccc2s1` stands 1.81.
In turn, `CCOC(=O)c1cc2sc(C)cc2n1CC(=O)N(CC)CC` returned a z-score of -0.063.
The same measure for `O=C(CN1C(=O)NC2(CCCc3ccccc32)C1=O)Nc1cccc(S(=O)(=O)N2CCCCC2)c1` (configuration not stated): -0.286.
Under `O=c1c2sc3nc(N4CCOCC4)c4c(c3c2nnn1Cc1ccccc1)CCCC4` stands -0.443.
In turn, `COc1ccc(-n2nccc2-c2nn(-c3cccc(OC)c3)c(=O)n(C)c2=O)cc1` returned a z-score of -0.177.
The same measure for `CN(Cc1ccccc1)C(=O)Nc1ccccc1`: -0.205; for `CCOc1ccc(C(=O)Nc2ccc3c(c2)OCCO3)cc1OC`: -0.705.
The same measure for `CCOc1nc(NC(C)C)nc(NC(C)C)n1`: -0.0254; for `Cc1cccc(CS(=O)(=O)Cc2ccc(C(=O)NCc3ccco3)o2)c1`: 0.36; for `CCOc1ccc(C2=Nc3ccccc3C(c3ccc(N4CCOCC4)cc3)=NN2)cc1`: 0.262.
The same measure for `CN1C(=O)CC(c2ccco2)Sc2ccccc21` (configuration not stated): 0.571; for `COc1ccc(NC(=O)ON=C2c3ccccc3-c3ccccc32)cc1`: -0.204; for `CCOC(=O)C1(C)NC(c2ccccc2F)C2C(=O)N(c3cccc(C(C)=O)c3)C(=O)C21` (configuration not stated): 0.00621.
`COC(=O)c1ccc(NC(=O)COC(=O)c2cccc3c(=O)c(C)c(-c4ccccc4)oc23)cc1` gave a z-score of -0.521.
Under `Cc1cc(CCN2CCC(=O)NC2=O)ccc1OC(C)C` stands -0.169.
The same measure for `COc1cc(Br)c(C(C)NC(=O)c2cccc(Br)c2)cc1OC` (configuration not stated): -0.249; for `Cn1c(C(=O)Nc2ccc3c(c2)OCCO3)cc2c(=O)n(C)c3ccccc3c21`: -1.24.
Under `O=C1CCc2cc(S(=O)(=O)N3CCN(c4ccccc4F)CC3)ccc2N1` stands 0.0515.
`CC1(C)CC2CC(C)(CN2S(=O)(=O)c2ccc(C(=O)Nc3cccc(S(=O)(=O)N4CCOCC4)c3)cc2)C1` (configuration not stated): the z-score is 0.167.
Under `CCCN1Cc2cccc(C(=O)NC(C)c3cccs3)c2C1=O` (configuration not stated) stands -1.53.
Regarding `O=S(=O)(NCCSc1nnc(-c2ccco2)n1-c1ccccc1)c1ccccc1`, the z-score is -1.33.
As to `Cn1c(Oc2ccccc2NCc2cc(Br)ccc2O)cc(=O)n(C)c1=O`, the z-score was -0.0923.
Take `COc1ccc(N2CCN(C(=O)c3ccc(Oc4ccc(C(F)(F)F)cn4)cc3)CC2)cc1`: the z-score is 0.0329.
The same measure for `COc1ccc(CNC(=O)c2cc3c(=O)n4ccccc4nc3n(Cc3cccnc3)c2=N)cc1`: 0.325.
Under `COc1ccc(C)cc1S(=O)(=O)N(CC(=O)N1CCOCC1)Cc1ccccc1` stands -0.348; under `O=C(COC(=O)C1CCN(S(=O)(=O)c2ccc3c(c2)OCCO3)CC1)Nc1cccc2ccccc12`, -0.122; under `C=CCc1cccc2cc(C(=O)N(CC)CC)c(=O)oc12`, 0.119.
As for `Cc1cc(C)cc(CC2CC(=O)N(c3ccc(Cl)cn3)C2=O)c1` (configuration not stated), the z-score is -0.0948.
The same measure for `Cc1ccc(Cl)cc1NC(=O)CC1NCCNC1=O` (configuration not stated): 0.0248; for `COc1ccccc1NC(=O)CCc1c(C)[nH]c(=O)c(C#N)c1C`: 0.136; for `O=c1c2cn[nH]c2[nH]c(=S)n1-c1ccccc1F`: 0.188.
Under `CC(=O)NCCN1C(=O)C2C3c4ccccc4C(c4ccccc43)C2C1=O` (configuration not stated) stands -0.191.
The same measure for `CC1(C)C(c2cccs2)=[N+]([O-])C2(CCCCC/C2=N\O)N1O` (configuration not stated): 0.245.
Compound `O=C(CCn1c(=O)sc2ccccc21)Nc1nc2ccccc2s1` registered a z-score of -0.943.
Take `O=C(Cc1ccccc1)NCCc1ccc(Cl)cc1Cl`: the z-score came to 0.107.
The same measure for `CC1=CS/C(=C(/C#N)C(=O)NCc2ccco2)N1c1ccccc1`: -0.559; for `C=CCn1c(COc2ccccc2)nnc1SCC(=O)NCC(=O)OCC`: 0.856; for `O=c1c2ccccc2nc(SCc2cn3ccsc3n2)n1-c1ccccc1`: -2.57.
Under `O=C(CCn1nnc(-c2cccs2)n1)NC1CCCCC1` stands -0.311; under `CCCC(c1nnnn1Cc1ccco1)N1CCN(C(=O)c2ccco2)CC1` (configuration not stated), -0.0404; under `CC12C(=O)N(c3ccc(C(=O)N4CCOCC4)cc3)C(=O)C1C1c3ccccc3C2c2ccccc21` (configuration not stated), -0.236.
The same measure for `O=C(C1CCCCC1)N1CCC(c2nc3ccccc3[nH]2)CC1`: -0.166; for `Cc1cc(-c2ccccc2)nc(Cl)c1C#N`: -0.108.
Compound `O=c1[nH]c(CCC2CCCC2)nc2ccccc12` had a z-score of -0.143.
The same measure for `Cn1c(=O)n(C)c2cc(S(=O)(=O)NCCOCCO)ccc21`: 0.0941; for `CCn1c(CNc2ccc(OC)cc2)nnc1SCC(=O)Nc1ccc(F)cc1`: -0.176; for `CNC(=O)c1cccn1-c1ccsc1C(=O)OC`: -0.114.
The same measure for `COc1ccc(S(=O)(=O)N2CCC(C(=O)Nc3ccc4c(c3)OCCO4)CC2)cc1OC`: 0.311.
Compound `Cc1ccc(SCC(=O)NC(C)(C)C)cc1` registered a z-score of 0.0907.
Under `O=C(CN1C(=O)c2ccccc2C1=O)Nc1nc(-c2cccc([N+](=O)[O-])c2)cs1` stands -0.19; under `CCn1c(=O)c(C(=O)NCc2cccnc2)c(O)c2ccccc21`, -0.286; under `CCCSc1nnc(C(C)C)n1N`, 0.266.
The same measure for `Cc1ccc(C(=O)Nc2ccc3cn[nH]c3c2)cc1S(=O)(=O)N1CCCCC1`: -0.657.
Under `O=C(NCc1ccco1)c1ccccc1Br` stands 0.0939.
`OC(COCC1COc2ccccc2O1)CN1CCN(c2ccccc2)CC1` (configuration not stated): the z-score stood at 0.108.
Under `CSC1=NCCN1C(=O)COc1ccc2ccccc2c1` stands -0.884; under `c1ccc(CSc2ccc(-c3ccc4c(c3)OCO4)nn2)cc1`, 0.0698; under `CC(C)c1ccc(NC2(C#N)C(=O)Nc3ccccc32)cc1` (configuration not stated), -0.0513.
With `CC(C)NC(=O)c1onc(CSc2ccc(Cl)cc2)c1C(=O)O`, the z-score is -1.59.
The same measure for `Cc1nn(C)c(C)c1/C=N/NC(=O)c1csc2ccccc12`: -0.509; for `O=C1CN(C(=O)COc2cccc(F)c2)c2ccccc2N1`: -0.539; for `Cc1cccc(-c2n[nH]c(=S)n2/N=C/c2ccc(C)s2)c1`: 0.7.
The same measure for `CC(C)Cn1c2c(c(=O)[nH]c1=O)C(C(F)(F)F)(C(F)(F)F)N=C(CCC1CCCCC1)N2`: -0.271.
The same measure for `O=C(OC(C(=O)NCc1cccs1)c1ccccn1)c1cccs1` (configuration not stated): 1.45.
`Cn1c(Cl)c(/C=N/OC(=O)c2cccc(Cl)c2)c2ccccc21` gave a z-score of -0.438.
The same measure for `CC(=O)Nc1ccc(C(=O)Cn2nnc3ccccc3c2=O)cc1`: 0.208; for `O=C(CSc1nc2ccccc2s1)NNC(=S)Nc1ccc(Cl)cc1`: 0.0228; for `O=C(CNc1cccc(C(F)(F)F)c1)N/N=C/c1cccc(Br)c1`: 0.0214.
Under `CCN(CC)C(=O)Cn1cc(/C=C(\C#N)C(=O)N2CCN(c3ccccc3)CC2)c2ccccc21` stands -0.167; under `COc1cccc(OCc2nnc(SCC(=O)OCc3ccccc3)o2)c1`, -0.776; under `Cc1ccc(Cl)cc1NC1=NC(=S)N(C(C)C)C12CCCCC2`, 0.728.
The same measure for `Cc1ccc(OCCSc2nnc(NC(=O)c3ccco3)s2)cc1`: 1.22; for `O=S(=O)(NCC1CCCO1)c1ccc(Cl)c(C(F)(F)F)c1` (configuration not stated): -0.143.
As for `O=C1c2ccccc2C(=O)N1CCCCN(C(=O)c1cccc([N+](=O)[O-])c1)c1ccc(Cl)cc1`, the z-score was found to be 0.017.
The same measure for `CCN1CCN(c2nc3c(C)cccn3c(=O)c2/C=C(\C#N)S(=O)(=O)c2ccc(C)cc2)CC1`: -1.38.
